In paper PMC8259415:
Where a chain is given by its changes, count along the chain named. These are yes or no findings as the source states them, for the method shown. For some assays here: In cells and extracts the contact can be indirect. Some binding calls cover weakened binding; strength is not graded here. Blank lines part the entries; values can stand above or below the substance they belong to.

What was measured:
[1] = molecular target: T1, Abl2 Src homology 2 (SH2) domain (UniProt Q4JIM5); test: pull-down; Abl2 SH2 domain covalently coupled to AminoLink agarose beads (1 μM) incubated overnight with 500 μg HEK293 lysate (RIPA buffer) expressing PDGFRβ, cells serum starved and stimulated with PDGF-BB for 10 min or mock treated; bound material immunoblotted for PDGFRβ; only the target …
T1 sequence: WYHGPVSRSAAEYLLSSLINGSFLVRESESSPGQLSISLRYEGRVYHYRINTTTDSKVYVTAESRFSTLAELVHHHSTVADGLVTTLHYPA

[2] = molecular target: T1, Abl2 Src homology 2 (SH2) domain; test: pull-down; Abl2 SH2 covalently linked to AminoLink beads, 1 μM; 0 to 2 μM PDGFRβ CD; 1 h at 4 °C; 50 mM Hepes pH 7.25, 150 mM NaCl, 5% glycerol, 1 mM DTT; SDS-PAGE, Coomassie densitometry, one-site specific binding fit; both purified
[3] = molecular target: T2, Abl2 SH2 domain R198K (phosphotyrosine-binding defective mutant) (UniProt Q4JIM5); test: as above
T2 sequence: T1 sequence with R26K

[4] = molecular target: Abl2-HA (hemagglutinin tag), WT (UniProt Q4JIM5); test: co-IP; Abl2-HA immunoprecipitated with anti-HA (12CA5) from 0.5 mg lysate (Triton lysis buffer) of HEK293 cells co-expressing PDGFRβ, serum starved and stimulated with PDGF-BB; blotted for PDGFRβ

- binding [1]: binds
Substance: PDGFRβ Y716F, full length (from UniProt P09619 33-1106) (receptor)

- binding [2]: binds weakly
Substance: autophosphorylated PDGFRβ CD (Y771F) (from UniProt P09619 554-1106) (domain or fragment)

- binding [3]: no binding (tested: 0 to 2 μM)
Substance: autophosphorylated PDGFRβ cytoplasmic domain (CD) (from UniProt P09619 554-1106) (domain or fragment)

- binding [4]: no binding
- binding [1]: no binding
Substance: kinase-inactive PDGFRβ point mutant (K634R), full length (from UniProt P09619 33-1106) (receptor)
